In PubChem BioAssay AID485364 (National Center for Advancing Translational Sciences (NCATS), 2010):
Screen size: about 360,000 compounds; about 11,000 (3.1%) were called active. The inconclusive results got no clear call from the source; some entries with a clear call stand among them for comparison. Calls come from the whole dose curve; as a rule, active = well fitted inhibition curve with a large enough effect; inconclusive = small, poorly fitted or top-dose-only effect; inactive = no such curve, though single readings can be large or run the other way. Potencies of inconclusive entries are left out as doubtful fits.
Note: nearly all actives have a fitted effect of over 60% in size.
Potency is the fitted concentration of half-maximal effect; tags give direction and shape of the fitted curve.

What follows are compounds tested against Schistosoma mansoni thioredoxin glutathione reductase (TGR) (UniProt Q962Y6) (assay: qHTS Assay for the Inhibitors of Schistosoma Mansoni Peroxiredoxins). Conditions: purified TGR, DTNB reduction, TNB absorbance 405 nm; series mostly up to 114 µM.
In short: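 TGR 20 nM + NADPH 100 uM (dispensed conc.), cpd preinc 15 min RT; start with NADPH (500 uM addition) then DTNB (15 mM addition). Kinetic TNB absorbance, 405 nm filter. Four-parameter Hill fit across titration.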
In the case of `CSc1ccc(-c2ccco2)nn1`, the Potency was active: 10 µM.
In the case of `Cc1ccc(N2C(=O)C(c3c(C)[nH]n(-c4ccccc4)c3=O)(C(F)(F)F)C3=C2CC(C)(C)CC3=O)cc1` (stereo not given), the Potency was inconclusive [inhibitor, partial curve, poor fit].
In the case of `O=C(NCC(F)(F)F)Nc1cccnc1`, the Potency was “inactive”.
For `CCCCn1c(=O)n(Cc2cccc(F)c2)c(=O)c2c1ncn2Cc1ccco1`, the Potency was inconclusive [inhibitor, partial curve, poor fit].
In the case of `Cc1ccc2c(C(=O)CN3CCCCC3CCO)c(C)[nH]c2c1` (stereo not given), the Potency was inconclusive [inhibitor, full curve].
`CN(C)CCCN(C(=O)c1ccc(Br)s1)c1nc2cc3c(cc2s1)OCO3` was tested, and the Potency was “inactive”.
For `COC(=O)c1ccc(NC(=O)c2cc(=O)c3ccc(C)cc3o2)cc1`, the Potency was “inactive”.
For `Fc1cccc(CNc2ncnc3cc(Cl)ccc23)c1F`, the Potency was “inactive”.
`Cc1ccc(NC(=O)Cn2c(=O)n(CCc3ccccc3)c(=O)c3c4c(sc32)CCCC4)c(C)c1` was tested, and the Potency was “inactive”.
With `COC(=O)C1=NN(N=O)C2(CC(=O)N(c3cc(C)cc(C)c3)C2=O)C1` (stereo not given) the Potency was active: 25.1 µM.
For `Cc1ccc(-c2nc3ccccc3o2)cc1NC(=S)NC(=O)/C=C/c1ccco1`, the Potency was inconclusive [inhibitor, full curve].
With `C=CCc1cccc2cc(C(=O)N3CCN(C(=O)c4ccco4)CC3)c(=O)oc12` the Potency was inconclusive [inhibitor, partial curve].
In the case of `CC(C)(Oc1ccc(-c2ccco2)cc1)C(=O)O`, the Potency was inconclusive [inhibitor, partial curve].
For `Nc1nc(COC(=O)C2CC(=O)N(Cc3ccccc3Cl)C2)nc(Nc2ccccc2)n1` (stereo not given), the Potency was “inactive”.
With `NC1=NC(=O)/C(=C/c2cccc(-c3ccc(S(N)(=O)=O)cc3)c2)S1` the Potency was active: 10 µM.
With `N#C/C(=C\c1coc2ccc(O)cc2c1=O)C(=O)Nc1nc2ccccc2s1` the Potency was inconclusive [inhibitor, partial curve].
For `NC(=O)N=Nc1c(O)n(Cc2ccccc2)c2ccc(Br)cc12`, the Potency was inconclusive [inhibitor, single point].
`CCC(c1nnnn1Cc1ccccc1)N(Cc1ccco1)Cc1cc2cc(OC)ccc2[nH]c1=O` (stereo not given) was tested, and the Potency was inconclusive [inhibitor, partial curve].
With `Cc1nc2sc(C(c3cccc(F)c3)N3CCOCC3)c(O)n2n1` (stereo not given) the Potency was inconclusive [inhibitor, single point].
In the case of `O=C(CN1CCN(CN2C(=O)NC3(CCCCCC3)C2=O)CC1)Nc1cccc(F)c1`, the Potency was inconclusive [inhibitor, partial curve].
In the case of `COc1ccccc1OCCn1c(=O)sc2ccccc21`, the Potency was “inactive”.
For `CCOc1ccc(S(=O)(=O)Nc2ccc3c(c2)N(C(C)=O)CCC3)cc1`, the Potency was inconclusive [inhibitor, single point].
With `Brc1ccc(-c2cn3nc4c(nc3n2)CCCC4)cc1` the Potency was inconclusive [inhibitor, partial curve].
In the case of `Cc1ccc(CNC(=O)C2(NC(=O)Nc3ccc(C)cc3)CCCCC2)cc1`, the Potency was inconclusive [inhibitor, partial curve, poor fit].
`O=C(O)c1ccc(N=Cc2c(O)ccc3ccccc23)cc1` was tested, and the Potency was inconclusive [inhibitor, partial curve, poor fit].
With `O=C1NC(c2cccc(Br)c2)=N/C1=C\c1ccco1` the Potency was active: 79.4 µM.
With `Cc1cc(Br)ccc1NC(=S)Nc1cccc([N+](=O)[O-])c1` the Potency was inconclusive [inhibitor, full curve].
In the case of `OCC1(CCOc2ccccc2)CCN(C2Cc3ccccc3C2)CC1`, the Potency was inconclusive [inhibitor, partial curve].
With `CC(C)(C)OC(=O)NCCCCCc1nnc(SCC(N)=O)o1` the Potency was inconclusive [inhibitor, full curve, poor fit].
For `CC(=O)Oc1ccc(C(=O)[C@H]2[C@H]3C(=O)N(c4ccccc4)C(=O)[C@H]3[C@@H]3C=CC=NN32)cc1`, the Potency was inconclusive [inhibitor, partial curve].
In the case of `COc1c(Cl)ccc(Cl)c1C(=O)OCC(=O)O`, the Potency was inconclusive [inhibitor, partial curve].
For `O=c1[nH]c2cc3c(cc2cc1CN(Cc1cccs1)Cc1nnnn1Cc1ccco1)OCCO3`, the Potency was active: 11.2 µM.
With `CC(C)CCn1c(CN2CCN(C(=O)c3ccco3)CC2)nc2c1c(=O)n(C)c(=O)n2C` the Potency was inconclusive [inhibitor, partial curve, poor fit].
With `C#CCOCCOCCOCCNc1nc(N2CCN(C(=O)[C@H]([C@@H](C)CC)n3cc([C@@H](N)Cc4ccc(O)cc4)nn3)CC2)nc(N2CCN(C(=O)[C@H](CCCCN)n3cc([C@@H](N)CC(C)C)nn3)CC2)n1` the Potency was active: 12.6 µM.
`Fc1ccc(CN2CCCN(Cc3nc(-c4ccc5c(c4)OCO5)no3)CC2)cc1` was tested, and the Potency was inconclusive [inhibitor, partial curve].
In the case of `Cc1ccc2c(c1)N=C(c1ccccc1)CC(C(Cl)Cl)=N2`, the Potency was active: 15.8 µM.
With `Oc1ccc(N=Cc2ccc(O)c(O)c2)cc1` the Potency was active: 22.4 µM.
`CCC(=O)Nc1cccc(NC(=S)NC(=O)c2cccc(C)c2)c1` was tested, and the Potency was active: 39.8 µM.
For `Cc1ccc2c(c1)-c1nc(-c3ccc4c(c3)NC(=O)CO4)cc(-c3ccc(Cl)cc3)c1CO2`, the Potency was “inactive”.
With `Brc1ccc(OCc2nc3ccccc3[nH]2)cc1` the Potency was “inactive”.
With `O=C(NC(=S)NCc1ccc(F)cc1)c1ccccc1` the Potency was active: 17.8 µM.
With `O=C(CSc1ccc(-c2cccnc2)nn1)Nc1ccc(F)cc1F` the Potency was active: 7.08 µM.
For `Cc1ccc(-n2cc(-c3ccccc3)[nH]c2=O)cc1F`, the Potency was inconclusive [inhibitor, partial curve].
`CCc1cc2cc(C)ccc2nc1SCC(=O)N1CCN(C(=O)c2ccco2)CC1` was tested, and the Potency was inconclusive [inhibitor, partial curve].
With `Cc1ccc(Sc2ccc(NC(=O)CCl)cc2)cc1C` the Potency was inconclusive [inhibitor, full curve].
